Measured values from the supplement of paper PMC8948288.
The sequences are guide strands of siRNAs; only the seed at positions 2 to 7 varies.

What was measured:
H4 = experiment: cell viability relative to siNT1 (ATP content); H4 human neuroglioma and GL261 mouse glioma; higher = less toxic; details: siRNA concentration 10 nM; 96 h; human
GL261 = experiment: as above; details: siRNA concentration 25 nM; 96 h; mouse
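Note: cells reverse transfected with siRNA duplexes via lipid reagent, ATP read by luminescence, triplicate wells, values scaled to mean viability with non-targeting control siNT1.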

Sequence | cell viability (H4) [%] | cell viability (GL261) [%]
UUAUGCCACAUGUAAACCA | 11.2 | 22.5
UUAUGCGACAUGUAAACCA | 68.2 | 39.8
UUAUGCUACAUGUAAACCA | 11.5 | 40.4
UUAUGGAACAUGUAAACCA | 37.7 | 43.2
UUAUGGCACAUGUAAACCA | 31.8 | 15.4
UUAUGGGACAUGUAAACCA | 11.2 | 22.1
UUAUGGUACAUGUAAACCA | 17.6 | 35.7
UUAUGUAACAUGUAAACCA | 90.2 | 44.1
UUAUGUCACAUGUAAACCA | 30.8 | 22.8
UUAUGUGACAUGUAAACCA | 60.2 | 47.8
UUAUGUUACAUGUAAACCA | 71.1 | 34.4
UUAUUAAACAUGUAAACCA | 114 | 40.4
UUAUUACACAUGUAAACCA | 47.9 | 17.4
UUAUUAGACAUGUAAACCA | 94.7 | 27.1
UUAUUAUACAUGUAAACCA | 103 | 33.6
UUAUUCAACAUGUAAACCA | 76.8 | 22.7
UUAUUCCACAUGUAAACCA | 47.4 | 11.4
UUAUUCGACAUGUAAACCA | 77.4 | 31.2
UUAUUCUACAUGUAAACCA | 58.4 | 14.9
UUAUUGAACAUGUAAACCA | 78.7 | 60

Sequence | cell viability (H4) [%] | cell viability (GL261) [%]
UUAUUGCACAUGUAAACCA | 34.5 | 39.3
UUAUUGGACAUGUAAACCA | 83 | 32.1
UUAUUGUACAUGUAAACCA | 77 | 43
UUAUUUAACAUGUAAACCA | 95 | 30.6
UUAUUUCACAUGUAAACCA | 64.5 | 35
UUAUUUGACAUGUAAACCA | 93.4 | 44.8
UUAUUUUACAUGUAAACCA | 72 | 19.6
UUCAAAAACAUGUAAACCA | 87.7 | 82.6
UUCAAACACAUGUAAACCA | 114 | 44
UUCAAAGACAUGUAAACCA | 102 | 61
UUCAAAUACAUGUAAACCA | 69.7 | 58.4
UUCAACAACAUGUAAACCA | 109 | 46.5
UUCAACCACAUGUAAACCA | 28.3 | 10.2
UUCAACGACAUGUAAACCA | 97.9 | 46.2
UUCAACUACAUGUAAACCA | 74 | 39.9
UUCAAGAACAUGUAAACCA | 111 | 41
UUCAAGCACAUGUAAACCA | 64 | 37.6
UUCAAGGACAUGUAAACCA | 93.6 | 29.8
UUCAAGUACAUGUAAACCA | 77.8 | 37.4
UUCAAUAACAUGUAAACCA | 84.8 | 66.5

Sequence | cell viability (H4) [%] | cell viability (GL261) [%]
UUCAAUCACAUGUAAACCA | 81.2 | 45.4
UUCAAUGACAUGUAAACCA | 106 | 57.7
UUCAAUUACAUGUAAACCA | 92.1 | 60
UUCACAAACAUGUAAACCA | 99.3 | 31.4
UUCACACACAUGUAAACCA | 46.5 | 21.4
UUCACAGACAUGUAAACCA | 92.7 | 18
UUCACAUACAUGUAAACCA | 62.1 | 38.2
UUCACCAACAUGUAAACCA | 87.5 | 28.3
UUCACCCACAUGUAAACCA | 96.7 | 41.1
UUCACCGACAUGUAAACCA | 120 | 32.9
UUCACCUACAUGUAAACCA | 84.9 | 22.2
UUCACGAACAUGUAAACCA | 92.5 | 50.5
UUCACGCACAUGUAAACCA | 95.8 | 11.6
UUCACGGACAUGUAAACCA | 120 | 43.9
UUCACGUACAUGUAAACCA | 109 | 49.2
UUCACUAACAUGUAAACCA | 116 | 53.4
UUCACUCACAUGUAAACCA | 103 | 37.8
UUCACUGACAUGUAAACCA | 99.7 | 44
UUCACUUACAUGUAAACCA | 98.7 | 34.5
